# Measurements as given in the supplement of paper PMC7826260.
# The other results are listed elsewhere or left out. Cleavage of a single-stranded DNA pool by Rep nickase domains was read by sequencing (3 µM enzyme, 1 h, 37 °C); shown is the middle of each 90-letter strand. Numbers give uncut DNA relative to the enzyme-free pool, as log2; uncut sequences lie near 0, cut ones below; no hit call is given. Because reads are shares of a total, they shift together; values above 0 arise when much of the pool is cut.
# Experiments:
# Experiment in all cases: uncleaved DNA left, log2 of reads against the no-enzyme library (log2 ratio); higher = less cleavage (more negative = more Rep cleavage of the k-mer); sequences stand for … in CTCGTCCG…ACCGGAGA
# [1] = test system: T1, Rep nickase domain of Muscovy duck circovirus
# T1 sequence (residues 1-111, tag not shown): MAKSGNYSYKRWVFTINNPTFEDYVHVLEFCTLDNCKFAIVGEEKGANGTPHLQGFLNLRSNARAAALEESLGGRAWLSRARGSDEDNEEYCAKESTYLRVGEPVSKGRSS
# Protocol: (§1)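 A pool of 90-nt single-stranded DNAs with seven random bases just before the constant AC of the nick site (name = the seven bases) was cut by 3 µM recombinant His6-SUMO-tagged Rep nickase domain (300 nM DNA, 50 mM HEPES pH 8.0, 50 mM NaCl, 1 mM MnCl2, 1 h, 37 °C, three replicates). Uncut DNA was amplified and sequenced.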
# [2] = test system: T2, Rep nickase domain of banana bunchy top virus
# T2 sequence (residues 1-94, tag not shown): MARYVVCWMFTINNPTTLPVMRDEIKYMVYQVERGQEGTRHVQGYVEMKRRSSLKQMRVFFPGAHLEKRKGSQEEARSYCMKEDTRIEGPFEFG
# Protocol: as §1
# [3] = test system: T3, Rep nickase domain of cabbage leaf curl virus
# T3 sequence (residues 1-116, tag not shown): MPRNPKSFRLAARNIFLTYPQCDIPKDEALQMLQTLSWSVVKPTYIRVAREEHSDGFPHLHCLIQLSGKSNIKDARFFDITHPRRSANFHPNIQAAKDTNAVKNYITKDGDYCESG
# Protocol: as §1
# [4] = test system: T4, Rep nickase domain of chickpea chlorotic dwarf virus
# T4 sequence (residues 1-124, tag not shown): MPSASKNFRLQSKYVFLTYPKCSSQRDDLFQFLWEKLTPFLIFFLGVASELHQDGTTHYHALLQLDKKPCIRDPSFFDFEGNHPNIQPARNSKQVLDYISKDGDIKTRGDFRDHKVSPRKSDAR
# Protocol: as §1
# [5] = test system: T5, Rep nickase domain of faba bean necrotic yellows virus
# T5 sequence (residues 1-98, tag not shown): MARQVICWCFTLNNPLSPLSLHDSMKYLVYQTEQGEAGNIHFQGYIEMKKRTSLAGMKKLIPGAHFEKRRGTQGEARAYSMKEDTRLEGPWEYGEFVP
# Protocol: as §1
# [6] = test system: T6, Rep nickase domain of maize striate mosaic virus
# T6 sequence (residues 1-117, tag not shown): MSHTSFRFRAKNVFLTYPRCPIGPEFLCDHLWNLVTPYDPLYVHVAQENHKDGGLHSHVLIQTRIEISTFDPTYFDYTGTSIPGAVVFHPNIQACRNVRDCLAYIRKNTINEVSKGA
# Protocol: as §1
# [7] = test system: T7, Rep nickase domain of porcine circovirus 2
# T7 sequence (residues 2-116, tag not shown): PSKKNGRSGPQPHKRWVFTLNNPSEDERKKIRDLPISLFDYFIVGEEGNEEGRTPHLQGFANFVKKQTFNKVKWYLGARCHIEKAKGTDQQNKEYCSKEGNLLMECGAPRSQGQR
# Protocol: as §1
# [8] = test system: T8, Rep nickase domain of tomato yellow leaf curl virus
# T8 sequence (residues 1-136, tag not shown): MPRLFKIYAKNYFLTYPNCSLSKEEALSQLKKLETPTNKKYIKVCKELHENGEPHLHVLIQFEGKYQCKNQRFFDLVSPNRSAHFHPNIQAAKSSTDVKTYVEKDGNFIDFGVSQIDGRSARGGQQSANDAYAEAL
# Protocol: as §1
# [9] = test system: T9, Rep nickase domain of wheat dwarf virus
# T9 sequence (residues 1-137, tag not shown): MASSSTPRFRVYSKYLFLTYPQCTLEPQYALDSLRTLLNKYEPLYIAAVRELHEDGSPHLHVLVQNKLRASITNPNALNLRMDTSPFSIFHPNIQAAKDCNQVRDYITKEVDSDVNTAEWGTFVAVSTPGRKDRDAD
# Protocol: as §1
Sequence,uncleaved DNA left (log2) [1],uncleaved DNA left (log2) [2],uncleaved DNA left (log2) [3],uncleaved DNA left (log2) [4],uncleaved DNA left (log2) [5],uncleaved DNA left (log2) [6],uncleaved DNA left (log2) [7],uncleaved DNA left (log2) [8],uncleaved DNA left (log2) [9]
CCCCAAT,0.0388,-0.0865,0.106,-0.5,-0.168,-0.694,-0.174,-0.0613,-0.0344
CCTCAGG,0.073,0.0107,0.15,1.01,0.219,0.707,0.299,-0.0992,0.0682
TTTTCCC,-0.182,-0.101,0.0984,-0.437,-0.144,-0.363,-0.328,-0.0747,-0.147
GCTAAGG,0.102,0.111,0.338,1.25,0.0832,1.05,0.206,0.0236,0.137
AAAACGT,0.101,0.0378,-0.197,-1.06,0.0648,-0.8,-0.0571,0.0197,-0.0782
GGTTCTC,-0.116,-0.0638,0.218,0.906,-0.262,1.54,-0.109,0.0233,-0.045
TCATCCG,-0.00932,-0.0408,-0.807,-0.281,0.0439,-1.03,0.104,-0.0203,-0.0785
CACGTCG,0.0121,-0.0539,-0.789,-0.203,0.0806,-0.862,0.167,-0.0233,-0.156
GAAGCGC,0.181,0.158,-0.568,-0.205,0.138,-0.67,0.181,0.0932,-0.0817
AGCCGGG,0.0174,0.0958,-0.0321,0.168,-0.00553,0.0399,0.214,0.0606,0.0836
TCGCTCG,0.0125,0.0902,0.434,2.23,0.101,1.1,0.108,-0.00351,0.0575
TTATGCC,-0.0257,-0.0294,-0.275,-0.594,-0.0293,-1.16,-0.011,0.0867,-0.205
CGACGGA,-0.0508,0.0159,0.0197,0.621,-0.0452,1.44,0.0423,-0.0833,-0.0272
AGGGCTC,-0.0287,-0.0762,0.25,0.806,-0.0859,1.08,-0.0147,-0.195,-0.0115
TACGGTT,0.0187,-0.144,-1.66,-2.27,-0.0896,0.86,-0.343,-0.142,-0.287
ATAATGT,0.14,0.0756,0.292,-0.479,0.177,-0.947,0.102,0.0489,0.00135
ATCTGGG,-0.0591,-0.0396,-0.559,-0.504,-0.079,-1.13,0.133,0.0515,-0.105
GGCGTGC,0.0254,0.0318,0.147,0.618,-0.0842,0.542,0.00716,-0.113,-0.054
CCCACAA,-0.101,-0.0449,0.0286,-0.532,-0.0124,-0.764,0.028,-0.0281,-0.00536
TGGTCAT,-0.0103,0.0141,0.819,1.94,-0.0719,2.27,0.189,0.0275,0.131

Sequence,uncleaved DNA left (log2) [1],uncleaved DNA left (log2) [2],uncleaved DNA left (log2) [3],uncleaved DNA left (log2) [4],uncleaved DNA left (log2) [5],uncleaved DNA left (log2) [6],uncleaved DNA left (log2) [7],uncleaved DNA left (log2) [8],uncleaved DNA left (log2) [9]
TGGGACC,-0.0779,0.0192,0.911,1.96,0.0654,2.2,0.235,0.00224,0.139
CAGGATC,0.189,-0.0674,0.22,1.3,0.112,1.34,0.111,-0.1,-0.0583
GCGCCCG,-0.082,-0.0681,-0.592,-0.464,-0.0497,-0.662,0.00111,-0.0439,-0.126
GCAGTTT,-0.00164,-0.169,0.0291,-1.33,-0.0923,-0.158,-0.0991,-0.0555,-0.0495
ACGGCAC,-0.0922,0.00748,-0.196,-0.167,0.016,-0.424,0.0434,-0.101,-0.000519
GGCCTAC,-0.085,0.0724,0.429,0.842,0.0131,1.62,-0.083,-0.0281,0.113
GAGGGCA,0.0165,0.0976,0.836,1.78,0.00226,2.08,0.25,0.0814,0.0629
AAAATTC,0.187,0.149,-0.0983,-0.635,0.129,-0.876,0.144,0.134,-0.0171
AAGACGG,0.0473,0.0565,0.107,0.739,0.0999,1.61,0.223,-0.147,0.0467
TAATTCC,-0.0792,-0.11,-3.9,-3.21,0.089,-3.21,-0.212,-0.0626,-3.5
ATAAGAC,-0.00816,0.0751,-2.39,-2.34,0.0733,-0.605,0.0947,-0.00526,-0.28
CTCGCGT,-0.0691,-0.0248,-0.728,-0.857,0.00676,-0.856,0.215,-0.01,-0.049
TTTCGGG,0.0767,0.0943,0.294,0.295,0.165,0.0566,0.291,0.107,0.119
CCAAGTT,-0.143,-0.0753,-0.257,-0.45,-0.186,0.745,-0.017,-0.242,-0.255
TCATCGA,0.0612,0.0384,-0.466,-0.581,0.00727,-1.03,0.181,0.067,-0.0399
CAGCCGG,0.00234,0.0201,0.322,0.765,0.0778,0.726,0.121,-0.18,0.0174
ACTAACG,-0.00466,-0.00216,-0.748,0.117,-0.0363,-0.779,0.147,0.0911,-0.0764
CGAGCCA,0.0278,0.0411,0.112,-0.15,0.129,0.305,-0.897,-0.0526,-0.00564
AGACTCT,0.054,-0.00242,0.566,1.01,0.0594,1.93,-0.0128,0.0632,0.0428
GGGAGTC,0.0517,0.0387,0.834,1.87,0.00593,2.18,0.181,0.0184,0.0142

Sequence,uncleaved DNA left (log2) [1],uncleaved DNA left (log2) [2],uncleaved DNA left (log2) [3],uncleaved DNA left (log2) [4],uncleaved DNA left (log2) [5],uncleaved DNA left (log2) [6],uncleaved DNA left (log2) [7],uncleaved DNA left (log2) [8],uncleaved DNA left (log2) [9]
CTCTATA,0.0597,-0.0153,-0.191,-1.76,0.0888,-0.676,-0.273,-0.213,0.08
GAAGGAA,-0.0487,-0.0129,0.378,1.29,-0.0692,1.62,0.0556,-0.0738,-0.00282
GAGAGGA,0.159,0.0953,0.462,0.756,0.012,0.792,0.0111,0.0718,0.167
GTGTCAG,-0.0113,0.114,0.16,0.464,-0.0179,-0.0169,0.171,0.0941,-0.0327
CTGCGTT,-0.0294,-0.214,-0.935,-0.752,-0.0598,-1.05,0.0517,-0.0485,-0.218
GACAACT,0.000466,-0.0692,0.0985,-2.46,0.0186,0.57,-1.33,-0.0155,0.0422
TCAGCTT,-0.114,-0.055,0.412,0.913,-0.149,1.41,-0.0073,-0.0942,-0.0274
TATTTAC,-0.402,0.059,0.0321,-1.81,-0.00782,-0.197,-0.296,0.037,0.0534
GGCCGAA,0.115,0.216,0.749,1.58,0.27,1.96,0.248,0.135,0.281
AGGAAAC,0.00384,-0.013,0.153,0.546,0.062,0.215,-0.0208,-0.0797,0.0622
GTTTGTG,0.0512,-0.101,-0.572,-0.36,0.0855,-0.851,0.172,0.111,-0.127
AATGGAC,0.035,0.021,0.318,1.12,0.00667,1.15,0.144,-0.0816,0.0668
AGTCCGA,-0.0271,-0.0449,-0.0934,0.157,0.0445,-0.596,-0.0426,0.0434,0.00917
GCCTACG,0.0138,-0.00817,-0.732,-0.488,-0.127,-0.793,0.0861,-0.084,-0.172
TAATAAC,-0.0117,-0.0259,-3.16,-3.01,0.00782,-2.76,0.0696,0.0064,-2.73
ATTTCAG,-0.0325,-0.0249,-0.864,-0.797,0.0375,-1.16,0.138,0.0849,-0.0542
CCTAGCC,0.0146,-0.0393,-0.212,-0.465,-0.00885,-1.09,0.000727,-0.131,-0.0724
TGCACCG,0.0457,0.081,-0.688,-0.495,0.113,-0.954,0.14,0.00889,-0.0589
CTCCGGT,0.0208,-0.169,0.212,0.422,-0.0756,1.24,0.0521,-0.0701,0.00624
AACTATT,-3.86,-3.8,-3.34,-3.42,-3.01,-2.13,-4.49,-0.0843,-1.69
